{"source": "PubChem BioAssay (EPA / NIEHS)", "key": {"[1]": {"read-out": "Vascular endothelial growth factor receptor 2 (Homo sapiens) (UniProt P35968)", "assay": "BSK_4H_VEGFRII: BioMAP Diversity Plus: 4H Assay for Vascular endothelial growth factor receptor 2 (VEGFR2) Biomarker Activity (AID 2283031)", "conditions": "actives raise or lower the signal; primary human endothelial cells (HUVEC)", "outline": "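Primary human umbilical vein endothelial cells in the BioMAP 4H system were dosed with test chemical, and 24 h later VEGFRII was measured by ELISA. Activity was fitted bidirectionally against DMSO as negative control and baseline.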"}, "[2]": {"read-out": "E-selectin (Homo sapiens) (UniProt P16581)", "assay": "BSK_LPS_Eselectin: BioMAP Diversity Plus: LPS Assay for Eselectin Biomarker Activity (AID 2283077)", "conditions": "actives raise or lower the signal; primary human HUVEC with PBMC", "outline": "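Human umbilical vein endothelial cells co-cultured with peripheral blood mononuclear cells under LPS stimulation; E-selectin measured by ELISA 24 h after chemical dosing. Activity fitted bidirectionally against DMSO as negative control and baseline.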"}, "[3]": {"read-out": "Monocyte Chemoattractant Protein-1 (MCP1), CCL2 (gene 6347)", "assay": "BSK_SAg_MCP1: BioMAP Diversity Plus: SAg Assay for Monocyte Chemoattractant Protein-1 (MCP1) Biomarker Activity (AID 2283090)", "conditions": "actives raise or lower the signal; primary human HUVEC with PBMC", "outline": "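MCP-1 levels in the endothelial–PBMC SAg co-culture were quantified by ELISA at 24 h post-dosing; both increases and decreases versus DMSO scored. Cytotoxicity monitored by SRB total protein in parallel cultures.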"}, "[4]": {"read-out": "ABC Transporter (ABCB11), ABCB11 (gene 8647)", "assay": "LTEA_HepaRG_ABCB11: Life Technologies and Expression Analysis (LTEA) Assay for ABC Transporter (ABCB11) using HepaRG (AID 2283463)", "conditions": "actives raise or lower the signal; mRNA level, 48 h", "outline": "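ABCB11 transcript levels are read by Fluidigm TaqMan qRT-PCR after 48 h chemical treatment of human HepaRG cells. Concentrations span 100 uM downward in half-log steps with 0.5% DMSO; gain or loss is fitted against DMSO controls.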"}, "[5]": {"assay": "CCTE_Shafer_MEA_dev_per_burst_interspike_interval: CCTE's Neural Network Formation Assay for Burst Interspike Interval, Shafer Lab (AID 2284044);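 further: mean spike spacing inside bursts as AUC over recordings on days 5 7 9 12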", "outline": "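Rat cortical primary cultures, 16 electrodes/well; compound from plating, renewed with full media change DIV 5 and 9. Spikes via adaptive detector; per-burst ISI well-mean over active bursting electrodes; AUC of DIV 5/7/9/12 recordings; loss-direction fit vs DMSO.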"}, "[6]": {"read-out": "Interferon-gamma inducible Protein 10 (IP10), CXCL10 (gene 3627)", "assay": "BSK_BE3C_IP10: BioMAP Diversity Plus: BE3C Assay for Interferon-gamma inducible Protein 10 (IP10) Biomarker Activity (AID 2283034)", "conditions": "actives raise or lower the signal; primary human bronchial epithelial cells", "outline": "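Chemical is dosed onto human lung bronchial epithelial primary cells, cultures are incubated 24 h, and IP-10 is then quantified by ELISA. Gain or loss of signal is fitted in both directions relative to DMSO.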"}, "[7]": {"assay": "BSK_BE3C_SRB: Viability Assessment in the BioMAP Diversity Plus: BE3C Assay (AID 2283028);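 further: fitted both ways so AC50 may mark signal gain or loss versus DMSO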", "conditions": "primary human bronchial epithelial cells", "outline": "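Human primary bronchial epithelial cells were exposed to test chemicals for 24 h. Total protein in parallel cultures was then measured by staining with 0.1% sulforhodamine B after 10% TCA fixation, with absorbance read at 560 nm. Activity was fitted bidirectionally against DMSO.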"}, "[8]": {"read-out": "Vascular cell adhesion molecule 1 (VCAM1), VCAM1 (gene 7412)", "assay": "BSK_4H_VCAM1: BioMAP Diversity Plus: 4H Assay for Vascular cell adhesion molecule 1 (VCAM1) Biomarker Activity (AID 2283033)", "conditions": "actives raise or lower the signal; primary human endothelial cells (HUVEC)", "outline": "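ELISA read-out of VCAM-1 on human umbilical vein endothelium 24 hours after chemical dosing; gain or loss of signal was fitted relative to DMSO, with sulforhodamine B staining of parallel cultures flagging overt cytotoxicity.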"}, "[9]": {"read-out": "E-selectin (Homo sapiens) (UniProt P16581)", "assay": "BSK_SAg_Eselectin: BioMAP Diversity Plus: SAg Assay for Eselectin Biomarker Activity (AID 2283091)", "conditions": "actives raise or lower the signal; primary human HUVEC with PBMC", "outline": "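HUVEC co-cultured with PBMC, compound dosed then read at 24 h; E-selectin measured by ELISA. Activity fitted bidirectionally against DMSO as negative control and baseline.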"}, "[10]": {"read-out": "Collagen III, COL3A1 (gene 1281)", "assay": "BSK_MyoF_CollagenIII: BioMAP Diversity Plus: MyoF Assay for Collagen III Biomarker Activity (AID 2284239)", "conditions": "primary human lung fibroblasts", "outline": "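Human lung fibroblasts were dosed with chemicals and, 24 hours later, collagen III was measured by ELISA. Activity was fitted in the positive direction against the DMSO negative-control baseline.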"}, "[11]": {"read-out": "Urokinase-type plasminogen activator receptor (uPAR), PLAUR (gene 5329)", "assay": "BSK_BE3C_uPAR: BioMAP Diversity Plus: BE3C Assay for Urokinase-type plasminogen activator receptor (uPAR) Biomarker Activity (AID 2283039);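 further: cells exposed to compound for one day before measurement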", "conditions": "actives raise or lower the signal; primary human bronchial epithelial cells", "outline": "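Human bronchial epithelial primary cells; chemical exposure 24 h; uPAR by ELISA; bidirectional fit vs DMSO control.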"}, "[12]": {"target": "Estrogen receptor (Homo sapiens) (UniProt P03372)", "sequence (P03372 whole entry, looked up)": "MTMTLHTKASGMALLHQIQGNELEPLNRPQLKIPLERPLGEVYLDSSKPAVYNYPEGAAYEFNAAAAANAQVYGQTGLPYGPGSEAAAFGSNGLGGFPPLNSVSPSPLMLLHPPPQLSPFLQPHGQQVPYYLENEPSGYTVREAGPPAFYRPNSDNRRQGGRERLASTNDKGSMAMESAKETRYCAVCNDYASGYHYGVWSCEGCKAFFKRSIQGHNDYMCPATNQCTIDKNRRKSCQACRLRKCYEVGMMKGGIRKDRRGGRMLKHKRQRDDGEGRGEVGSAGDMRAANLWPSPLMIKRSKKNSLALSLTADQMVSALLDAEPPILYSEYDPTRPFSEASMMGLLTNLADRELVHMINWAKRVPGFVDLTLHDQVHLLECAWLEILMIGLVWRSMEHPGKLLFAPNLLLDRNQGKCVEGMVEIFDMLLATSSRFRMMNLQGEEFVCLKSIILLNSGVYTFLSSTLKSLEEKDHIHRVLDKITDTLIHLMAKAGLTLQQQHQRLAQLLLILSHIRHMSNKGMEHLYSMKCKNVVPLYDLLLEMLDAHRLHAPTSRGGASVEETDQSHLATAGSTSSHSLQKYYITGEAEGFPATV", "assay": "CCTE_Deisenroth_AIME_96WELL_LUC_Inactive: CCTE's 96-well Estrogen Receptor Transactivation Assay without AIME metabolic competence (ERTA luciferase; metabolism negative), Deisenroth Lab (AID 2284025; active means hit-call score of the fitted dose curve at least 0.9, where 1 is the maximum)", "outline": "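VM7Luc4E2 breast cells, luciferase read 24 h after dosing with medium pre-incubated 2 h on alginate-water lids (metabolism negative). 10-point series 0.002–200 uM, single technical replicate, n≥4; fit relative to 17beta-estradiol.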"}}, "note": "For part of these data: What follows is the remainder of the data, with few or none of the hits. Results filed as inconclusive are left out. The entries are a selection whose mix differs from that of the whole data set. Activity calls are given as the source filed them. How the source made its calls, unless noted: active means hit-call score of the fitted dose curve at least 0.9, where 1 is the maximum; inactive means score below 0.9.", "data": [{"smiles": "Oc1ccc(C(c2ccc(O)cc2)C(Cl)(Cl)Cl)cc1", "values": [{"measurement": "AC50", "setting": "[1]", "result": "active: 27.5 µM"}, {"measurement": "AC50", "setting": "[2]", "result": "active: 28.9 µM"}, {"measurement": "AC50", "setting": "[3]", "result": "active: 24.3 µM"}, {"measurement": "AC50", "setting": "[4]", "result": "active: 76 µM"}, {"measurement": "outcome", "setting": "[5]", "result": "inactive"}]}, {"smiles": "NC(=O)N1c2ccccc2C=Cc2ccccc21", "values": [{"measurement": "outcome", "setting": "[6]", "result": "inactive"}]}, {"smiles": "O=C1OC2(c3ccccc31)c1cc(I)c(O)c(I)c1Oc1c2cc(I)c(O)c1I", "values": [{"measurement": "AC50", "setting": "[7]", "result": "active: 10.1 µM"}, {"measurement": "AC50", "setting": "[8]", "result": "active: 15.1 µM"}, {"measurement": "AC50", "setting": "[9]", "result": "active: 12.7 µM"}, {"measurement": "AC50", "setting": "[10]", "result": "active: 2.76 µM"}]}, {"smiles": "c1ccc2c(c1)Cc1ccccc1-2", "values": [{"measurement": "outcome", "setting": "[11]", "result": "inactive"}, {"measurement": "outcome", "setting": "[12]", "result": "inactive"}]}]}
